Results on 45 compounds are retold here after paper PMC4336329 (PLoS ONE, 2015).

Structures are written as SMILES. The campaign covered roughly 310,000 compounds. About 2,200 (0.71%) showed an effect of 50% or more. Effects have a minus sign here. The list shows a part of the results.

The assay deals with human ether-à-go-go-related gene (hERG) potassium channel (human, UniProt Q12809). The assay is described as follows: primary screen, population patch clamp on CHO cells stably expressing hERG.
human ether-à-go-go-related gene (hERG) potassium channel, sequence (Q12809 whole entry, looked up): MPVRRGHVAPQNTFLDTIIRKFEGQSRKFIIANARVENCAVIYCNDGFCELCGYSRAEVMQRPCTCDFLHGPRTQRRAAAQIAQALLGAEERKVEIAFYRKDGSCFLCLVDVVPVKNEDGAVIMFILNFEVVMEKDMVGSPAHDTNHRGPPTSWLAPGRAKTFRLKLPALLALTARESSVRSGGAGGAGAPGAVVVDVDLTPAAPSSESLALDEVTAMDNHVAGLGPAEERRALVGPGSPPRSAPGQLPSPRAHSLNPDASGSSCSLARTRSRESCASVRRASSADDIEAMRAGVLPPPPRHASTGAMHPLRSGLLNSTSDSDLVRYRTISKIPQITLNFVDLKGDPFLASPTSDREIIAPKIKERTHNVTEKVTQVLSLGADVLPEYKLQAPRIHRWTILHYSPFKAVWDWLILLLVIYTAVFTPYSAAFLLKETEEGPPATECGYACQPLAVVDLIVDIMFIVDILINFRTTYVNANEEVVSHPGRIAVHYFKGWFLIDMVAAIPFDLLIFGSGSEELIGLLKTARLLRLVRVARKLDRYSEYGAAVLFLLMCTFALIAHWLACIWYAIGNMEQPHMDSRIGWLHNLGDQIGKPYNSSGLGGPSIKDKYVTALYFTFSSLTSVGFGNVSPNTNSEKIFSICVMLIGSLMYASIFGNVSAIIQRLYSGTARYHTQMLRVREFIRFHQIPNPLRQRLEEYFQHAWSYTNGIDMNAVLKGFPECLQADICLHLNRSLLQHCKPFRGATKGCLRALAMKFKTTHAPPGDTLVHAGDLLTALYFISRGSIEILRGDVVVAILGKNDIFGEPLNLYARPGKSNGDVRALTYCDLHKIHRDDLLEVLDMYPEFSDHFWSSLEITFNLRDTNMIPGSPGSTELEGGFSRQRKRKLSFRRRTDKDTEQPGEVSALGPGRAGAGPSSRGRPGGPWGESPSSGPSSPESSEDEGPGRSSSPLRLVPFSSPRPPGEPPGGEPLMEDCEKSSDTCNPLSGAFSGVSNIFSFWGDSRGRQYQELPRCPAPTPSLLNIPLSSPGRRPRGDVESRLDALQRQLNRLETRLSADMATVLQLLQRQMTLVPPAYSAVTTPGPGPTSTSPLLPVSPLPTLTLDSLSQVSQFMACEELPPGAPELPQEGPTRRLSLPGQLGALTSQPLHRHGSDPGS
Consider `CCN(CC)CCNC(=O)Cn1c(C)cc2ccccc2c1=O`, for which the “hERG current change (%, negative = inhibition) at 1uM” value is recorded as -4.85%.

Regarding `CN(C)CCCNC(=O)/C(=C/c1ccc(-c2ccc([N+](=O)[O-])cc2)o1)NC(=O)c1ccccc1`, the “hERG current change (%, negative = inhibition) at 1uM” value is -52.5%.

Take `Oc1cccc(C(Nc2nccs2)c2ccc3cccnc3c2O)c1` (stereo not drawn): the “hERG current change (%, negative = inhibition) at 1uM” value is reported as -2.25%.

For `Cc1cc(C)cc(N(C(C)C(=O)N2CCCCC2)S(C)(=O)=O)c1` (stereo not drawn), the “hERG current change (%, negative = inhibition) at 1uM” value is on record as 9.28%.

Regarding `O=C(CC1SC(N2CCCCC2)=NC1=O)Nc1ccc(C(=O)Nc2ccccc2)cc1` (stereo not drawn), the “hERG current change (%, negative = inhibition) at 1uM” value was determined as 4.44%.

With `CCOc1ccc(C2=NNC(c3cccs3)=Nc3ccc(OC)cc32)cc1OCC`, the “hERG current change (%, negative = inhibition) at 1uM” value worked out at 0.309%.

As to `CC(=O)Nc1ccc(NC(=O)CN(c2cc(Cl)ccc2Cl)S(C)(=O)=O)cc1`, the “hERG current change (%, negative = inhibition) at 1uM” value turned out to be 13.3%.

`O=C(NCc1ccc(Cl)cc1)N1CCN(Cc2ccccc2)CC1`: the “hERG current change (%, negative = inhibition) at 1uM” value came out at 5.53%.

In the case of `Cc1ccc(C)c2[nH]c(=O)c(C(c3nnnn3Cc3ccco3)N3CCc4ccccc4C3)cc12` (stereo not drawn), the “hERG current change (%, negative = inhibition) at 1uM” value was 5.56%.

Regarding `COc1ccc(OCC(=O)NS(=O)(=O)c2ccccc2)cc1`, the “hERG current change (%, negative = inhibition) at 1uM” value was found to be 12.1%.

Take `Cc1ccc(Cn2ccsc2=NC(=O)COC(=O)c2ccc(O)cc2O)cc1`: the “hERG current change (%, negative = inhibition) at 1uM” value was 11.2%.

Turning to `O=C(NC1CCCCC1)C(=S)N1CCCC1`, the “hERG current change (%, negative = inhibition) at 1uM” value is on record as 12.5%.

Take `CCOc1ccc(OCCC(=O)N(CC(=O)Nc2ccccc2C(F)(F)F)Cc2ccco2)cc1`: the “hERG current change (%, negative = inhibition) at 1uM” value stood at 10.2%.

For the compound `CC(C)(C)NS(=O)(=O)c1ccc2nc(NC(=O)Cc3cccs3)sc2c1`, the “hERG current change (%, negative = inhibition) at 1uM” value was determined as 0.0479%.

For `C=CCNC(=O)C1CC2Cn3c(nc4cc5ccccc5cc43)C2N1C` (stereo not drawn), the “hERG current change (%, negative = inhibition) at 1uM” value was 8.26%.

With `COc1cc(C2C(C(=O)C(C)(C)C)=C(O)C(=O)N2Cc2ccccc2)ccc1O` (stereo not drawn), the “hERG current change (%, negative = inhibition) at 1uM” value amounted to 2.95%.

Turning to `CCN(CC)CCNC(=O)c1ccc(NC(=O)C2CC(=O)N(CCc3ccc(OC)c(OC)c3)C2)cc1` (stereo not drawn), the “hERG current change (%, negative = inhibition) at 1uM” value is on record as 20.6%.

For `CC(=O)Nc1ccc(NC(=O)C(C)OC(=O)CSCc2cccc(Cl)c2)cc1` (stereo not drawn), the “hERG current change (%, negative = inhibition) at 1uM” value stood at 9.94%.

`Cc1ccc(S(=O)(=O)c2c(N)n(CCC(C)C)c3nc4ccccc4nc23)cc1`: the “hERG current change (%, negative = inhibition) at 1uM” value turned out to be 2.31%.

As for `Cc1cc(CNC(=O)C(C)n2cc([N+](=O)[O-])cn2)c2ccccc2n1` (stereo not drawn), the “hERG current change (%, negative = inhibition) at 1uM” value is given as 1.64%.

Take `CCc1cccc(CC)c1NC(=S)NCc1nc2ccccc2[nH]1`: the “hERG current change (%, negative = inhibition) at 1uM” value amounted to 9.51%.

`Clc1ccc2[nH]c3c(c2c1)CNCC3`: the “hERG current change (%, negative = inhibition) at 1uM” value is listed as 10.8%.

In the case of `CC(=NC(C)C)C1=C(O)C(C)OC1=O` (stereo not drawn), the “hERG current change (%, negative = inhibition) at 1uM” value is 10.9%.

`COC(C[C@H]1O[C@@H]1[C@H](O)[C@H](C)OCc1ccccc1)OC`: the “hERG current change (%, negative = inhibition) at 1uM” value stood at 12.3%.

Consider `Cc1ccccc1C(=O)NCCCCc1ccccc1`, for which the “hERG current change (%, negative = inhibition) at 1uM” value was found to be 8.46%.

Consider `Cc1c(Cl)cccc1NC(=S)N(Cc1cccnc1)Cc1ccccc1Cl`, for which the “hERG current change (%, negative = inhibition) at 1uM” value is listed as 10.3%.

`O=C(Cn1cc(C(=O)C2CC2)c2ccccc21)NCC1CCCO1` (stereo not drawn): the “hERG current change (%, negative = inhibition) at 1uM” value is listed as 0.573%.

On to `CCNS(=O)(=O)c1ccc2c(c1)NCC2`, for which the “hERG current change (%, negative = inhibition) at 1uM” value is on record as 20.8%.

For `COc1cc(C(=O)N(Cc2cc3ccccc3[nH]c2=O)CC2CCCO2)cc(OC)c1OC` (stereo not drawn), the “hERG current change (%, negative = inhibition) at 1uM” value came out at 4.8%.

As for `CC(=O)N1CCN(c2ccc(NC(=O)c3ccc(Cl)cc3)cc2)CC1`, the “hERG current change (%, negative = inhibition) at 1uM” value was found to be 5.94%.

Take `O=S(=O)(O)c1cnccc1Nc1cccc(C(F)(F)F)c1`: the “hERG current change (%, negative = inhibition) at 1uM” value was 11.1%.

With `C/C(=N/NC(=O)CCCOc1ccc(Cl)cc1Cl)c1ccc(C)o1`, the “hERG current change (%, negative = inhibition) at 1uM” value was found to be 12.5%.

`O=C(CCNS(=O)(=O)c1ccc(Br)cc1)Nc1cccc(F)c1`: the “hERG current change (%, negative = inhibition) at 1uM” value stood at 6.1%.

`COc1ccc(CCC(=O)Nc2ccc3c(c2)OCO3)cc1OC`: the “hERG current change (%, negative = inhibition) at 1uM” value was found to be 16.9%.

`O=C(CSc1cccc2cccnc12)NCc1ccco1`: the “hERG current change (%, negative = inhibition) at 1uM” value came out at 6.72%.

As to `Cc1ccn(CCC(=O)NC2CCCc3c2cnn3-c2cccc(C)c2C)n1` (stereo not drawn), the “hERG current change (%, negative = inhibition) at 1uM” value is recorded as 12.9%.

As for `CS(=O)(=O)N1CCN(C(=O)c2cc(-c3ccccc3)nc3ccccc23)CC1`, the “hERG current change (%, negative = inhibition) at 1uM” value is listed as -5.59%.

Turning to `O=C(O)CN1C(=O)C(=O)N(Cc2ccc(C(F)(F)F)cc2)C1=O`, the “hERG current change (%, negative = inhibition) at 1uM” value is reported as 20.9%.

Regarding `COc1ccccc1NC(=S)NC(=O)Cc1ccc(Cl)cc1`, the “hERG current change (%, negative = inhibition) at 1uM” value is given as 14.2%.

As for `C/C(=N\N1CCN(C2c3ccccc3-c3ccccc32)CC1)c1ccncc1`, the “hERG current change (%, negative = inhibition) at 1uM” value amounted to 10.3%.

Turning to `Cc1c(NC(=O)C2CC(c3cccc(Br)c3)=NO2)c(=O)n(-c2ccccc2)n1C` (stereo not drawn), the “hERG current change (%, negative = inhibition) at 1uM” value was determined as 13.6%.

As to `CCCOc1ccc(C2C(C(=O)c3ccc(C)o3)=C(O)C(=O)N2Cc2ccco2)cc1OCC` (stereo not drawn), the “hERG current change (%, negative = inhibition) at 1uM” value is given as 14.9%.

Regarding `COc1ccc(CNC(=O)CN2C(=O)CCSc3ccc(S(=O)(=O)N4CCCC4)cc32)cc1`, the “hERG current change (%, negative = inhibition) at 1uM” value worked out at 5.07%.

For the compound `O=C(CS(=O)(=O)c1cn(Cc2cccc(F)c2)c2ccccc12)N1CCOCC1`, the “hERG current change (%, negative = inhibition) at 1uM” value was 0.41%.

As for `CC1(C)N=C(N)N=C(N)N1c1ccc(C(=O)O)cc1.Cl`, the “hERG current change (%, negative = inhibition) at 1uM” value is reported as -1.62%.
